B1: Const. No. 48: HSA-GGSSGG-hCFI; Δ(V565) > VG (enzyme)
chain: [not shown - about 600 residues]GGSSGGKVTYTSQEDLVEKKCLAKKYTHLSCDKVFCQPWQRCIEGTCVCKLPYQCPKNGTAVCATNRRSFPTYCQQKSLECLHPGTKFLNNGTCTAEGKFSVSLKHGNTDSEGIVEVKLVDQDKTMFICKSSWSMREANVACLDLGFQQGADTQRRFKLSDLSINSTECLHVHCRGLETSLAECTFTKRRTMGYQDFADVVCYTQKADSPMDDFFQCVNGKYISQMKACDGINDCGDQSDELCCKACQGKGFHCKSGVCIPSQYQCNGEVDCITGEDEVGCAGFASVTQEETEILTADMDAERRRIKSLLPKLSCGVKNRMHIRRKRIVGGKRAQLGDLPWQVAIKDASGITCGGIYIGGCWILTAAHCLRASKTHRYQIWTTVVDWIHPDLKRIVIEYVDRIIFHENYNAGTYQNDIALIEMKKDGNKKDCELPRSIPACVPWSPYLFQPNDTCIVSGWGREKDNERVFSLQWGEVKLISNCSKFYGNRFYEKEMECAGTYDGSIDACKGDSGGPLVCMDANNVTYVWGVVSWGENCGKPEFPGVYTKVANYFDWISYHVGRPFISQYNVG
B2: Const. No. 60: HSA-GGSSGG-hCFI; K368D (enzyme)
chain: [not shown - about 600 residues]GGSSGGKVTYTSQEDLVEKKCLAKKYTHLSCDKVFCQPWQRCIEGTCVCKLPYQCPKNGTAVCATNRRSFPTYCQQKSLECLHPGTKFLNNGTCTAEGKFSVSLKHGNTDSEGIVEVKLVDQDKTMFICKSSWSMREANVACLDLGFQQGADTQRRFKLSDLSINSTECLHVHCRGLETSLAECTFTKRRTMGYQDFADVVCYTQKADSPMDDFFQCVNGKYISQMKACDGINDCGDQSDELCCKACQGKGFHCKSGVCIPSQYQCNGEVDCITGEDEVGCAGFASVTQEETEILTADMDAERRRIKSLLPKLSCGVKNRMHIRRKRIVGGKRAQLGDLPWQVAIKDASGITCGGIYIGGCWILTAAHCLRASDTHRYQIWTTVVDWIHPDLKRIVIEYVDRIIFHENYNAGTYQNDIALIEMKKDGNKKDCELPRSIPACVPWSPYLFQPNDTCIVSGWGREKDNERVFSLQWGEVKLISNCSKFYGNRFYEKEMECAGTYDGSIDACKGDSGGPLVCMDANNVTYVWGVVSWGENCGKPEFPGVYTKVANYFDWISYHVGRPFISQYNV
B3: Const. No. 70: HSA-GGSSGGSSGG-Rat CFI (enzyme)
chain: [not shown - about 600 residues]GGSSGGSSGGKNTPASGQPQEDLVEQKCLLKNYTHHSCDKVFCQPWQKCIEGTCACKLPYQCPKAGTPVCATNGRGYPTYCHLKSFECLHPEIKFSNNGTCTAEEKFNVSLIYGSTDTEGIVQVKLVDQDEKMFICKNSWSTVEANVACFDLGFPLGVRDIQGRFNIPVNHKINSTECLHVRCQGVETSLAECTFTKKSSKAPHGLAGVVCYTQDADFPTSQSFQCVNGKRIPQEKACDGVNDCGDQSDELCCKGCRGQAFLCKSGVCIPNQRKCNGEVDCITGEDESGCEEDKKNKIHKGLARSDQGGETEIETEETEMLTPDMDTERKRIKSLLPKLSCGVKRNTHIRRKRVVGGKPAEMGDYPWQVAIKDGDRITCGGIYIGGCWILTAAHCVRPSRYRNYQVWTSLLDWLKPNSQLAVQGVSRVVVHEKYNGATYQNDIALVEMKKHPGKKECELINSVPACVPWSPYLFQPNDRCIISGWGREKDNQKVYSLRWGEVDLIGNCSRFYPGRYYEKEMQCAGTSDGSIDACKGDSGGPLVCKDVNNVTYVWGIVSWGENCGKPEFPGVYTRVASYFDWISYYVGRPLVSQYNV
B4: Const. No. 91: HSA-GGSSGG-hCFI; T377A; E457G; N531G (enzyme)
chain: [not shown - about 600 residues]GGSSGGKVTYTSQEDLVEKKCLAKKYTHLSCDKVFCQPWQRCIEGTCVCKLPYQCPKNGTAVCATNRRSFPTYCQQKSLECLHPGTKFLNNGTCTAEGKFSVSLKHGNTDSEGIVEVKLVDQDKTMFICKSSWSMREANVACLDLGFQQGADTQRRFKLSDLSINSTECLHVHCRGLETSLAECTFTKRRTMGYQDFADVVCYTQKADSPMDDFFQCVNGKYISQMKACDGINDCGDQSDELCCKACQGKGFHCKSGVCIPSQYQCNGEVDCITGEDEVGCAGFASVTQEETEILTADMDAERRRIKSLLPKLSCGVKNRMHIRRKRIVGGKRAQLGDLPWQVAIKDASGITCGGIYIGGCWILTAAHCLRASKTHRYQIWTAVVDWIHPDLKRIVIEYVDRIIFHENYNAGTYQNDIALIEMKKDGNKKDCELPRSIPACVPWSPYLFQPNDTCIVSGWGRGKDNERVFSLQWGEVKLISNCSKFYGNRFYEKEMECAGTYDGSIDACKGDSGGPLVCMDANNVTYVWGVVSWGEGCGKPEFPGVYTKVANYFDWISYHVGRPFISQYNV

Target: T1, human C4b (human, UniProt P0C0L5 20-1744)
T1 chain 1: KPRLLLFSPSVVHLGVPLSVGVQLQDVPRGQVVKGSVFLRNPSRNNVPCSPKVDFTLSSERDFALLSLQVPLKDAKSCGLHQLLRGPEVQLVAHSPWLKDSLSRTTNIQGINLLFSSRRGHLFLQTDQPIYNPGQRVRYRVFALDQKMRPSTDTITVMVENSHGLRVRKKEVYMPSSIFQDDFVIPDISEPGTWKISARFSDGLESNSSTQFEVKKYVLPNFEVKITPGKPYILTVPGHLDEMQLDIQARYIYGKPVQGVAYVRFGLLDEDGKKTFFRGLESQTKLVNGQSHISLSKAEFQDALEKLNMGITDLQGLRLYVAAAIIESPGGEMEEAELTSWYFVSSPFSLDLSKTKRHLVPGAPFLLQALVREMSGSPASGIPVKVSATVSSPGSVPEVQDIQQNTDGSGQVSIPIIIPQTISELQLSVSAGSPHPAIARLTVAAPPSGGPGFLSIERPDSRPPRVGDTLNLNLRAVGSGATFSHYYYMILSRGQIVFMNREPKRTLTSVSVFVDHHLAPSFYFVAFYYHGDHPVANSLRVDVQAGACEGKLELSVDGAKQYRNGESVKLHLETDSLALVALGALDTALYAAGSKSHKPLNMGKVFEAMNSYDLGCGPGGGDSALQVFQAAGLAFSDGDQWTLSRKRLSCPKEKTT
T1 chain 2: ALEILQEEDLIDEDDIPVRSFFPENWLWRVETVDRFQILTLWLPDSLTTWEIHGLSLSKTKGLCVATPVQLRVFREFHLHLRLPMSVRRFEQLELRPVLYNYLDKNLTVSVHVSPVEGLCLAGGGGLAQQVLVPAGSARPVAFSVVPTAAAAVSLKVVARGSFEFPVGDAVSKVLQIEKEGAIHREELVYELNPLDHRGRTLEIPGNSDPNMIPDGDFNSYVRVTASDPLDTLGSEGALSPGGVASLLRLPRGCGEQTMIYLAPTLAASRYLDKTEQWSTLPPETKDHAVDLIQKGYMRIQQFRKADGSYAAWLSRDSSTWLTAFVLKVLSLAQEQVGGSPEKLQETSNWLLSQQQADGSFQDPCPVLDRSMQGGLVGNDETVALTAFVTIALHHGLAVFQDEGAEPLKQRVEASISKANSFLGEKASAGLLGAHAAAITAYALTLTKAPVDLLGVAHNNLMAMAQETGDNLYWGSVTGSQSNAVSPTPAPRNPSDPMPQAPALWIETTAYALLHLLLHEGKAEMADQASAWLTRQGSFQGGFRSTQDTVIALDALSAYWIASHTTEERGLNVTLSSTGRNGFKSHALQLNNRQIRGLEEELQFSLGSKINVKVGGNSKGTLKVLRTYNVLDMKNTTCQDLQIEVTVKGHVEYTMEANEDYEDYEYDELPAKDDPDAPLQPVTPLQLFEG
T1 chain 3: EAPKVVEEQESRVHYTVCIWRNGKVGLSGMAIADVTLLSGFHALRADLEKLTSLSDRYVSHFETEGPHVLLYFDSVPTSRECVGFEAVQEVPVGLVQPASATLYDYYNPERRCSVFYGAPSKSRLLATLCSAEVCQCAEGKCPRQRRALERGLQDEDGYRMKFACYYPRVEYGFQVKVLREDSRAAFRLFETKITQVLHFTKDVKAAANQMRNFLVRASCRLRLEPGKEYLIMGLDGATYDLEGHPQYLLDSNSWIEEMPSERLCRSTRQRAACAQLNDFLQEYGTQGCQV
Assay: cell-based or functional assay

Binder	C4c EC50 [nM]
B1	812
B2	367
B3	16.6
B4	13.8

— US20250011379A1 (VERTEX PHARMACEUTICALS, published 2025)
